The record followed here is paper PMC11589869.

Protein sequences, listed by entry. Tags and fused reporters are not part of them.
UniProt P63044: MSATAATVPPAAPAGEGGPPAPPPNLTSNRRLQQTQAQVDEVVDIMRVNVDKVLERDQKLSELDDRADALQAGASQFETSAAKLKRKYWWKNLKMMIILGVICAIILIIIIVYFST
UniProt P46096: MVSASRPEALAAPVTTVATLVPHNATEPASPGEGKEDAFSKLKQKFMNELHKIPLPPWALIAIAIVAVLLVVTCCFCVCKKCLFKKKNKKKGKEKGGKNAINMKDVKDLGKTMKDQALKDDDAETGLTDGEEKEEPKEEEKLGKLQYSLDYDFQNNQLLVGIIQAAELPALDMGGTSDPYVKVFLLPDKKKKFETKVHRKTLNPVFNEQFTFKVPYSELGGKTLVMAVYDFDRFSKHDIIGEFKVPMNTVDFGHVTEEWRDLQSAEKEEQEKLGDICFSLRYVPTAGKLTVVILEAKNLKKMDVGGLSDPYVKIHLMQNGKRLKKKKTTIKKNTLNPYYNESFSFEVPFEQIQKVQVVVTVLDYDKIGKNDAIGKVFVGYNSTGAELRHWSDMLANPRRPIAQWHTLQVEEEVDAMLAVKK

Holding throughout (test): pull-down; GST fusion protein immobilised on glutathione beads, incubated with Triton X-100 extract of mouse brain homogenate (2 hr, room temperature; 130 mM NaCl, 50 mM HEPES, 1 mM EDTA, Triton X-100, pH 7.3); bound proteins eluted by thrombin cleavage; SDS-PAGE and western blotting; only the target purified
Assay [1] deals with T1, GST-CpxII CTD (Complexin II C-terminal domain, wild type) (mouse) (UniProt P84086).
T1 sequence: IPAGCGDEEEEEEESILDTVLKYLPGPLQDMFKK

Assay [2] concerns the target T2, GST-CpxII CTD L124W-L128W (mouse) (UniProt P84086).
T2 sequence: T1 sequence with L24W, L28W

Assay [3] concerns the target T3, GST-CpxII CTD L124E-L128E (mouse) (UniProt P84086).
T3 sequence: T1 sequence with L24E, L28E

Residue numbers refer to the chain shown, from its start. These are yes or no findings as the source states them, for the method shown. Binding seen in cells or lysates may run through a third protein. Some binding calls cover weakened binding; strength is not graded here. Sequences can lack the tags named with a protein.

As to “SynaptobrevinII (SybII) (from UniProt P63044 1-116)”, the binding entry is on record as “binds weakly” in assay [1], “binds” in assay [2] and “no binding” in assay [3].

For “Synaptotagmin I (SytI) (from UniProt P46096 1-421)”, the binding result in assay [1] is listed as “binds”; in assay [2], “binds”; in assay [3], “no binding”.
